Screen size: about 410,000 compounds; about 7,200 (1.8%) were called active. The shares of active, inactive and inconclusive entries below differ from those in the screen. Calls come from the whole dose curve; as a rule, active = well fitted activation curve with a large enough effect; inconclusive = small, poorly fitted or top-dose-only effect, or another doubt; inactive = no such curve, though single readings can be large or run the other way. No potency is given beside an inconclusive call; the fits are too rough.
Assay: qHTS of TDP-43 Inhibitors; note: nearly all actives have a fitted effect of over 50% in size; for growth rescue (activation): % of control where 0% means no effect
Conditions: TDP-43 expressing yeast growth rescue, BacTiter-Glo, 24 h; growth rescue (activation): at 46.1 µM (top of the series) unless noted
Outline: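 Luminescence from BacTiter-Glo reports growth of TDP-43-expressing yeast after 24 hr at 30 deg C with compound. Cells were raffinose-pregrown to mid-log, then seeded in galactose medium at OD600=0.02.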
Potency is the fitted concentration of half-maximal effect; tags give direction and shape of the fitted curve.

Row | Structure (SMILES) | Potency | growth rescue (activation)
1 | CCOC(=O)Cc1csc(SCc2cc(=O)oc3cc(O)ccc23)n1 | inactive | –
2 | c1ccc(-c2noc(-c3ccccc3-c3ccccc3)n2)cc1 | inactive | –
3 | CCNC(=O)c1ccc2c(c1)sc1nc(-c3cccc(OC)c3)cn12 | active: 15.8 µM | –
4 | COc1ccc(C(=O)C(=O)N2CCN(C(=O)OCc3ccccc3)CC2)cc1 | inconclusive [activator, partial curve] | –
5 | COc1ccc(NC(=O)c2cc(-c3ccc(F)cc3OC)n[nH]2)c(C)c1 | inconclusive [activator, partial curve] | –
6 | CC(=O)N1CCN(Cc2cc(=O)oc3ccccc23)CC1 | inconclusive [activator, partial curve, poor fit] | –
7 | O=C(c1cc(S(=O)(=O)N2CCOCC2)ccc1Cl)N1CCc2ccccc2C1 | inconclusive [activator, partial curve] | –
8 | Cc1cc(C)c2c(=O)cc(C(=O)Nc3sc4c(c3C(=O)NCc3ccco3)CCCC4)oc2c1 | inactive | –
9 | CCN(CC)S(=O)(=O)c1ccc(OCCNS(C)(=O)=O)cc1 | inconclusive [activator, single point] | –
10 | CN1C(=O)/C(=N\OC(=O)c2cccc3ccccc23)c2ccccc21 | active: 17.8 µM | –
11 | CC1CCN(S(=O)(=O)c2cc(F)ccc2CN2C(=O)c3cccnc3C2=O)CC1 | inconclusive [activator, partial curve] | –
12 | Cc1ccc(Cl)cc1NC(=O)C1CC1c1ccccc1 (centres undefined) | inconclusive [activator, single point] | –
13 | COC(=O)c1cc(NC(=O)CC2C(=O)OCCN2Cc2ccccc2)cc(C(=O)OC)c1 (centres undefined) | inconclusive [activator, partial curve] | –
14 | COc1ccccc1OCC(=O)NC1CCCCCCC1 | inconclusive [activator, single point] | –
15 | COc1ccccc1C1C(C(=O)N2CCCCC2)=C(C)Nc2nc3ccccc3n21 (centres undefined) | inactive | –
16 | COc1ccc2cc3cc(C(=O)N(C)C4CCCCC4)oc3nc2c1 | active: 17.8 µM | –
17 | CCCCCCCCN1C(=O)[C@H](CC(=O)NCc2ccc(OC)c(OC)c2)C[C@@]2(C(=O)OC)CC(C)(C)CC=C12 | active: 22.4 µM | –
18 | Cc1ccc(NC(=O)CN2C(=O)c3cccnc3Sc3ccccc32)c(Br)c1 | inconclusive [activator, partial curve, poor fit] | –
19 | Cc1ccc(Nc2c3c(nc4nncn24)CCC3)c(C)c1 | inconclusive [activator, partial curve] | –
20 | CN(C(=O)c1cc2c(=O)n3ccccc3nc2s1)C1CCCCC1 | active: 14.1 µM | –
21 | CN1CC2([N+](=O)[O-])CC=C(Oc3ccccc3)C([N+](=O)[O-])(C1)C2 (centres undefined) | inconclusive [activator, partial curve] | –
22 | CC1(C(=O)NS(=O)(=O)c2ccccc2Cl)CCN1C(=O)C1(c2ccc(Cl)cc2)CC1 (centres undefined) | active: 35.5 µM | –
23 | CCc1cccc(NC(=O)CSc2nnc(-c3cc4occc4n3C)n2-c2ccccc2C)c1 | inactive | –

Row | Structure (SMILES) | Potency | growth rescue (activation)
24 | Cc1ccc(CNC(=O)c2ccc(Cn3c(SCc4ccc(F)cc4)nc4cccnc43)cc2)o1 | inactive | –
25 | COc1cccc2sc3ccc(C#Cc4ccc(N)cc4)cc3c(=O)c12 | inactive | –
26 | Cc1cc(C=C2C(=O)c3ccccc3C2=O)c(C)n1-c1ccc(C(=O)O)cc1 | inconclusive [activator, full curve, poor fit] | –
27 | COc1ccc(-c2cnc3c(NC=O)cc(-c4ccccc4)cn23)cc1OC | inconclusive [activator, partial curve] | –
28 | CCN1C(=O)[C@H]2[C@@H](c3ccc(C(F)(F)F)cc3)N[C@]3(CCCN(Cc4ccc(C)cc4)C3=O)[C@H]2C1=O | inconclusive [activator, partial curve] | –
29 | CCOC(=O)c1ccc(NC(=S)NCCc2ccccc2F)cc1 | inconclusive [activator, single point] | –
30 | CCOc1ccc(C(=O)Nc2cc(C)on2)cc1OCC | inconclusive [activator, single point] | –
31 | S=C(NCc1ccccc1)N1CCN(C2CCCCC2)CC1 | inconclusive [activator, single point] | –
32 | Nc1nc(Nc2cccc(C(F)(F)F)c2)nc(C(F)(F)F)n1 | inconclusive [activator, single point] | –
33 | Cc1cc(=O)oc2cc(OCC(=O)N3CCN(c4ccccc4)CC3)ccc12 | – | inconclusive: 36.1% [activator]
34 | COc1cccc(C(=O)N2CCN(C(=O)c3cccs3)CC2)c1OC | inactive | –
35 | CCOC(=O)C1=C(C)NC2=C(C(=O)CCC2)C1c1ccc(O)c(OCC)c1 (centres undefined) | inactive | –
36 | N#C/C(=C\c1ccc(N2CCOCC2)o1)C(=O)NCCc1ccccc1 | inconclusive [activator, single point] | –
37 | O=C(COc1ccc2c(c1)OCO2)Nc1cccc(F)c1 | inconclusive [activator, single point] | –
38 | Oc1ccc(CNc2ccccc2)c2cccnc12 | inconclusive [activator, partial curve] | –
39 | CC(=O)c1c(OC(=O)c2ccccc2)ccnc1C(F)(F)F | inconclusive [activator, full curve, poor fit] | –
40 | Cn1nc(-c2ccccc2F)c2cc(C(=O)NCc3cccc(Cl)c3)sc21 | inconclusive [activator, partial curve] | –
41 | CCOC(=O)N1CCN(c2nc(-c3ccc(F)cc3)cs2)CC1 | active: 20 µM | –
42 | COc1cc(S(=O)(=O)Nc2cccc(C)c2)ccc1NC(=O)c1ccncc1 | inconclusive [activator, partial curve, poor fit] | –
43 | COc1cccc(-c2nnc3n2N=C(C(C)(C)C)CS3)c1 | inconclusive [activator, single point] | –
44 | O=C(Nc1nnc(-c2ccccc2)o1)C1CCCCC1 | inconclusive [activator, partial curve, poor fit] | –
45 | CCc1c(C)sc2c1CCN(C(=O)Nc1cc(C)ccc1C)C2c1ccc(OC)cc1 (centres undefined) | inactive | –
46 | S=C(N/N=C/c1ccc2ncccc2c1)Nc1ccccc1 | active: 12.6 µM | –

Row | Structure (SMILES) | Potency | growth rescue (activation)
47 | CCOC(=O)[C@]12CCCC=C1N(Cc1ccco1)C(=O)[C@H](CC(=O)N1CCC(c3ccccc3)CC1)C2 | inactive | –
48 | S=C(Nc1ccccc1)N(Cc1ccccc1)Cc1ccncc1 | inconclusive [activator, partial curve] | –
49 | COc1ccc(-c2noc(CSc3nnc(Cc4ccccc4)n3-c3cccc(C)c3)n2)cc1 | inactive | –
50 | COc1ccc(/C=C/C(=O)Nc2ccc3nc4c(c(Nc5ccc(OC)c(OC)c5)c3c2)CCCC4)cc1 | inconclusive [activator, single point] | –
51 | CC(=O)Nc1cccc(C(=O)OCC(=O)c2ccc(S(=O)(=O)N3CCCCC3)cc2)c1 | inactive | –
52 | Cc1ccn2c(=O)nc(SCC(=O)c3ccccc3)nc2c1 | – | inconclusive: 37.8% [activator]
53 | COc1ccc(C(=O)n2nnc3ccccc32)cc1Br | inconclusive [activator, single point] | –
54 | CCN(CC)c1ccc2cc(C(C)=O)c(=O)oc2c1 | inconclusive [activator, single point] | –
55 | O=C(Nc1ccc2c(c1)CN(C(=O)Nc1ccc(F)cc1)CC2)c1ccccn1 | inconclusive [activator, full curve, poor fit] | –
56 | Cc1ccc(-c2cc(-c3ccccc3[N+](=O)[O-])[nH]n2)c(O)c1 | inconclusive [activator, single point] | –
57 | CC(C)(O)C#Cc1ccc(CNC[C@H]2O[C@@H](n3cnc4c(N)ncnc43)[C@H](O)[C@@H]2O)s1 | inconclusive [activator, single point] | –
58 | c1ccc2c(c1)ncc1nncn12 | inactive | –
59 | COc1ccc([C@H]2CC(=O)C=C(c3cc(F)ccc3OC)C2)cc1 | inconclusive [activator, single point] | –
60 | CCCc1c(OCCCOc2ccc(OCC(=O)O)cc2)ccc(C(C)=O)c1O | inconclusive [activator, single point] | –
61 | c1ccc(N2CCN(c3nc4cc5c(cc4s3)OCCO5)CC2)cc1 | inconclusive [activator, single point] | –
62 | CCC(C(=O)OCC(=O)Nc1c(Cl)cccc1Cl)c1ccccc1 (centres undefined) | inconclusive [activator, single point] | –
63 | O=C(O)CSC(NC(=O)c1cccnc1)(C(F)(F)F)C(F)(F)F | inconclusive [activator, partial curve] | –
64 | CCOC(=O)c1c(C)[nH]c(C)c1C(=O)CSc1nnc(-c2ccco2)n1Cc1ccccc1 | inconclusive [activator, partial curve] | –
65 | O=C(CCCNC(=O)/C(=C/c1ccccc1F)NC(=O)c1ccccc1)OCc1ccccc1 | inconclusive [activator, partial curve] | –
66 | Cc1ccc(-c2csc3ncnc(Nc4ccc(N5CCOCC5)cc4)c23)cc1 | inconclusive [activator, single point] | –
67 | CCCOc1ccc(F)cc1-c1cc(C(=O)NCc2ccco2)[nH]n1 | active: 14.1 µM | –
68 | O=C(c1ccccc1)c1nn(-c2ccccc2)c(=O)cc1-c1ccccc1 | inactive | –
69 | Cc1ccc(NC2CCCN(C(=O)c3cc(C(C)C)nn3C)C2)cc1C (centres undefined) | inconclusive [activator, full curve, poor fit] | –
